Patent US20240141059A1 (Bristol-Myers Squibb, published 2024)
Each block holds one binder with its values, some of them ahead of it.

How the values were obtained:
hCD32a-R131 = target: T1, hCD32a-R131 (human, UniProt P12318 34-217); experiment: SPR, FcgR analyte titration on protein A-captured dAb-Fc
T1 construct: Purified FcgR analyte in solution; also called FcgRIIa-R131
T1 sequence (looked up): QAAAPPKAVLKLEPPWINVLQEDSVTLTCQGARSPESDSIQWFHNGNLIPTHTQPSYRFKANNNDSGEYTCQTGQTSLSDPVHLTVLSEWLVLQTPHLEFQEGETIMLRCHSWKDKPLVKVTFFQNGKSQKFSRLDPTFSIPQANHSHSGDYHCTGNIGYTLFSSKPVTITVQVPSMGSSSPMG
Experimental: (§1) A second SPR assay for testing the interaction between antibodies or dAb-Fc proteins with FcgR proteins is a protein A capture method. […] For these studies, protein A is immobilized on flow cells 1-4 of a CM5 sensor chip using standard ethyl (dimethylaminopropyl) carbodiimide (EDC)/N-hydroxysuccinimide (NHS) chemistry, with ethanolamine blocking, in a running buffer of 10 mM HEPES pH 7.4, 150 mM NaCl, 3 mM EDTA, 0.05% surfactant p20, to a density of ˜3000 RU.

hCD64 = target: T2, hCD64 (human, UniProt P12314 16-288, limits assumed); experiment: as above
T2 construct: Purified FcgR analyte in solution; also called hFcgRI; FcgRI
Experimental: as §1

hCD40-Fc = target: T3, hCD40-Fc (human, UniProt P25942 in part); experiment: SPR, hCD40-Fc immobilized, dAb-Fc analyte, avidity
T3 construct: Immobilized on the sensor chip; not shown: Fc part of hCD40-Fc not described

[1] = target: T4, purified human-CD40 monomer (human, UniProt P25942 in part, limits assumed); experiment: SPR, dAb-Fc on protein A, hCD40monomer analyte; material from UCOE-CHO cells
T4 construct: Soluble analyte; also called hCD40monomer

[2] = target: T4, purified human-CD40 monomer; experiment: SPR, dAb-Fc on protein A, hCD40monomer analyte; material from UCOE-CHO cells; second set
[3] = target: T4, purified human-CD40 monomer; experiment: SPR, dAb-Fc on protein A, hCD40monomer analyte; second set

T4 sequence (P25942 21-193 limits assumed): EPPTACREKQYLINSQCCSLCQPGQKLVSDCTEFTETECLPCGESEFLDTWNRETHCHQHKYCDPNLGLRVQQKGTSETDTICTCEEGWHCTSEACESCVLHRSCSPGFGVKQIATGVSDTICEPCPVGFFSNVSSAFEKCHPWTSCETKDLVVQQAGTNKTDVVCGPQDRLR
hCD40-Fc, sequence (P25942 21-193): as the sequence (P25942 21-193 limits assumed) above
hCD64, sequence (P12314 16-288 limits assumed): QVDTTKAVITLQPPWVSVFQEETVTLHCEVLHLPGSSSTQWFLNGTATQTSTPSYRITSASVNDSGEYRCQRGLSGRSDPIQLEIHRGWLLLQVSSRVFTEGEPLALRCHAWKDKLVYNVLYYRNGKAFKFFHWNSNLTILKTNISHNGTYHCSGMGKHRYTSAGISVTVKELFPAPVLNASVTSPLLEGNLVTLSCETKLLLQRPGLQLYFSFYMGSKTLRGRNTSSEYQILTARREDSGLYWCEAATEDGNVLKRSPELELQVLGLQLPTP

KDapparent (hCD40-Fc): < 1 nM
B2: 3h56-269-IgG4.1 (Fc fusion)
chain: EVQLLESGGGLVQPGGSLRLSCAASGFTFRDYEMWWVRQAPGKGLERVSAINPQGTRTYYADSVKGRFTISRDNSKNTLYLQMNSLRAEDTAVYYCAKLPFRFSDRGQGTLVTVSSAST[left out - human IgG4 Fc with S228P (EU numbers)]
notes: dAb-Fc fusion protein; also called BMS-986090

Kd [1]: 7.7 nM
koff [1]: 0.00013 s⁻¹
kon [1]: 16000 M⁻¹ s⁻¹
Kd [2]: 7 nM
koff [2]: 0.00014 s⁻¹
kon [2]: 19000 M⁻¹ s⁻¹
Kd [3]: 7.3 nM
koff [3]: 0.00012 s⁻¹
KDapparent (hCD40-Fc): < 1 nM
B3: 3h56-269-CT (Fc fusion)
chain: EVQLLESGGGLVQPGGSLRLSCAASGFTFRDYEMWWVRQAPGKGLERVSAINPQGTRTYYADSVKGRFTISRDNSKNTLYLQMNSLRAEDTAVYYCAKLPFRFSDRGQGTLVTVSSAST[left out - human IgG1 Fc with changes]
notes: dAb-Fc fusion protein

Second part, the binder before the results:

B1: 3h56-269-IgG4.1 (Fc fusion)
chain: B2 chain
notes: also called BMS-986090
Kd (hCD32a-R131): 2200 nM
Kd (hCD64): 2.8 nM

B4: 3h56-269-IgG1-D265A (Fc fusion)
chain: EVQLLESGGGLVQPGGSLRLSCAASGFTFRDYEMWWVRQAPGKGLERVSAINPQGTRTYYADSVKGRFTISRDNSKNTLYLQMNSLRAEDTAVYYCAKLPFRFSDRGQGTLVTVSSAST[left out - human IgG1 Fc with D265A (EU numbers)]
notes: dAb-Fc fusion protein
KDapparent (hCD40-Fc): < 1 nM
